According to the supplement of paper PMC12632987:
Over roughly 4,500 sequences, “median log2 fold change of GCK-ALFA target abundance (FLAG IP / Myc IP barcode read proportion)” has its median near 0.078; the lowest 2% begin near -0.6. This is one part of the list.

B1: GBRAP_57_6447 (protein)
chain: SAHLEAVRAAAAELIALLRAGAPPEERRAAAAALMDLLSDDVVDLVAAILDPEAAEGKDRAELKALVVEELLRLAEERGPAAAIRVVETALAQEELLAEE
B2: GBRAP_128_3292 (protein)
chain: SAEALRARYDAEVRALLALTPEELHKATLALIKEASAEGLEAVELLVEAIEAHVPEFTVEQLEAIAAALREAMKEVSPEEAALLADAENVALLEAERKEE
B3: GBRAP_11_2779 (protein)
chain: KEEALKEAAKLAEELAELIEKLLKEGLDNEELRKKAEELLKKLTELVKKNLDEDLKKLAEIAKEEWEKAKKDKANAKEHLERMLAAVRVLLGQILLLLEE
B4: GBRAP_11_2623 (protein)
chain: KKETLKKLAELAKEAAELAKKLLEEGVDNEELRKKLEEKIKELAKLTEENADEADKKDVEIIKELFEKSLKDKENAEKYFKELLAALRVLEGNYLLDIEE
B5: GBRAP_184_5070 (protein)
chain: KVFEETIKVNNKEEAIKKMDELEEKIKDFKGDLLVHVEMPEANKEVIKTILDKLAEIKDKGYVTKVTIGFDADFTEEEIDFAVEYADKKGISVTLAISEE
B6: GBRAP_52_6185 (protein)
chain: MREELRAEVLRMLALVKAGREAEARALAEELVARLSDEELELLVEVLAEVAAEAPLADADAVFRLAEILADALEAAGKDEALAEDILAAAARALHAKELA
B7: GBRAP_184_5197 (protein)
chain: KVTEVEKKAKNLEEVKEEMEELLEEAKKNKADLHVILDLEEVTLEMVKEIMETLKEIKEKGYAPNITLELSGKMSEENIDLAIKLADEAGVNLTLALDEE
B8: GBRAP_128_3567 (protein)
chain: STAAAVAQARALLEAIKAGDAATRRAAAEALVALLAAADPETREAITAEILERLPELSAEDLEVLADVFRAARPAADPATAEALAEIQVEALNEREEKEE
B9: GBRAP_79_6748 (protein)
chain: DVEEARKALADALKVVLPELTEEELEEMVKNDEKLKEALIRAGLSEEMAEELLEAIKRIPKYSKELFEKTKERMKGLPEEEKRDLLEATVAAVIYEAEKL
B10: GBRAP_166_4873 (protein)
chain: HMEELLKKAEKEIEKLLKEASEADEEEQVELYIEIGEIIEELKEAGASLEDILELIERTLKEAKKLGLDVKKLAGIIINVTDFNEEEIDKIDEIVEKVLK
B11: GBRAP_160_4743 (protein)
chain: SEELEKLKKEIKEIFEEGIELLKESKKEEALTIVKGIMGDVIMLVESSEAASDELEDKIAEIADEAIKEVEENKDKPVEYHIKIVKEAEEKILELIEKEI
B12: GBRAP_139_3728 (protein)
chain: DPAEKAVKEVVELTKKSLETGGEYVDEIADLLNSMDEETAEKAAEAMAEVVKSESFDKAEAFWDALIDTLLTKHKNEDLATIVEAAANRALAEIAVREEA
B13: GBRAP_128_3583 (protein)
chain: SVAEARAYTRATLAAIREADPETRRALARELAERFAALSPEERRAAADTIEERLPELSPEDLELLAEALRAADTSDDPLLTELAAAVEVEALNKEEEEEE
B14: GBRAP_11_2908 (protein)
chain: KKEKLKEAAKLAEKAAKLIEQLIKNGADDKELWAEAEKAAEELLKLAKEYLDESTVELAEYALELLKKAQADPKNAQQYLNEALATVRVILGQILLAIEE
B15: GBRAP_184_5188 (protein)
chain: MIEEYEIKVENVEEAKEKIKEIAEEIKGKEAELYVIVEAEKITVEIAKVIIEGLGEIKKAGYAKKIVVEFVGEMSEEVIDVAVEGAKEAGIQVVIAMSEE
B16: GBRAP_52_6090 (protein)
chain: MMEELEEMARKIYEALKAGDLEKVTELLKELVEKYSDEEVLETIELTAKLVAEESPEEREKMLDILLEALDRVAEETGKEELMDEAAARVAAIAYESLLK
B17: GBRAP_14_3824 (protein)
chain: MEEIEKVIKEMTKELKALFAEISPEKAEELAAAVEEEAKKALEKIKETGDVEKAIREATERLVKRVKEILKDEPEEVRATAQAAVRIEWAEAEEEIDELL
B18: GBRAP_137_3651 (protein)
chain: MKIVITKSEEDGLGELTILVYDPEKAEEIAEKVLDIAHEVGADAVSIERLEDGHLEITVYGSPEKIDAFLEKFTEWLETELGLKKEESEEDGKKIYTFES
B19: GBRAP_160_4865 (protein)
chain: SEKLEKALKIVEEAEERALEIVEEAPASSRAAFAYSEMGAAILELEEEGLITDELEDELAEIADELEAELKANADASVEEHKKMVEEAFKKAKEKIKEMS
B20: GBRAP_52_6383 (protein)
chain: KVEEAAKLLKEAIKLIVEGGPKEEVEELAKEILEYDEETIEEAAKKVAEEIKKLSPEEAEKYLEATFELADILEELGLPEEVASLIEAEIGKAAYEVEQK
B21: GBRAP_52_5872 (protein)
chain: ALEKAIALLKEAIKAMLAGKEEEAKALMKEIVATFSEETILAAVKAVAEEVQTKSLEEAKAFFETVELLSDEMIAAGKDENIASEMEAIAGAALYKVEQK
B22: GBRAP_160_4037 (protein)
chain: NEKLKKLKKFAEEVFEEAKELVEGTSVEEAAVIIDVAAGEIIMEAVELGIDDDELEDFIDEIGDEAVAYLLAHPDLSEEEIKELIEEAREKVLEKIDEAE
B23: GBRAP_184_5087 (protein)
chain: KTLERLVEAETREELLAKVEEVIAEAAAEKANLTVLVDMPGLDVETALEILDLLGAARAAGAFPEATLGFAEAFTEEEADKIVARADAQGVRVVLALNEE
B24: GBRAP_166_4971 (protein)
chain: MQEELVEEFKKYIDELAEKMKTANHEEKLELLAEAAEKLKELIEKGLSDEDLKELIEYLIKKAKEVGISTSEVYGALTIIADLNEEQIDILEEAIKKVEK
B25: GBRAP_95_7049 (protein)
chain: EDDQLALDSLVEVLETYIDLGDEEKAEEAAREAVELLKELGWDAVPDDISLETAELLLREAAKHFSPEEVEALAAALKAKADTEEDKERIEAVAEEALAA
B26: GBRAP_9_7143 (protein)
chain: MEEMVKKIKEVMDDMFEEVREVVPEEVKPLVDELRKKALAEFDKVVADPNKTKEEIAEEAKKLIDDFAKEVSAKVSPEIAKIVEAIALTAKLEIEEILEE
B27: GBRAP_160_4221 (protein)
chain: SETIERIVKIFRENFEEAVELIEGESLEEQKVILDVAVGEVILEVSSDENVTDEMEEVVEKKAEEAAEELLKLKNASREEKLKLIEEKAKELKKELEKLA
B28: GBRAP_159_3962 (protein)
chain: MEERLEALREELRALGASEAAIERAVEALELSLEGEDKDSVAAHVLHLYFTLGASTEQILALLGFLDPDTARYVANVLADYAAAQGDAAAAAAFRAFAAA
B29: GBRAP_52_6163 (protein)
chain: SRERAEEYADRILAAVRAGDEEELERLLREVAETLSEEEIELMLEIIAERVPELTPEEAERVVDAAIRLEDLGIEAGHNEELLSYQLARVAAAAYDRLQA

Each binder was assayed against GABARAP, O95166 (assay: median log2 fold change of GCK-ALFA target abundance (FLAG IP / Myc IP barcode read proportion) (log2 ratio); each designed protein is fused to an ALFA-tag nanobody in HEK293 cells to bring the named protein to FLAG-tagged glucokinase (GCK); Myc marks an untargeted standard; higher = target protein stabilised (more abundant)). Conditions: target protein: 3xFLAG-MCP-GCK-ALFA reporter; HEK293 landing pad (RPLP).
Procedure, shortened: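 The readout is target abundance, the per-binder median log2 ratio of FLAG to Myc barcode read proportions. It came from HEK293 landing-pad cells carrying a recombined ALFA-nanobody-fused binder library, induced with 2 μg mL^−1 doxycycline and transfected with a plasmid for a FLAG-tagged target and a Myc-tagged standard. After 48 h, lysates were immunoprecipitated with anti-FLAG and anti-Myc, and circular RNA barcodes were reverse transcribed, amplified and sequenced. Each barcode needed a proportion of at least 10^−7 in both replicates and each binder at least 3 barcodes per replicate, a pseudocount of 10^−6 was added, and the replicates were pooled.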

Sequence of GABARAP, O95166 (O95166 whole entry, the tested form may be a part): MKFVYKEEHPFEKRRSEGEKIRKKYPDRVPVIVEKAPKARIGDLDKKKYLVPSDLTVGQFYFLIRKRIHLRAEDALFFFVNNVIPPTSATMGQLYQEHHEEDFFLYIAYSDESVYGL

**Q.** With B1 as the binder, how does the “median log2 fold change” value read?
**A.** Its value is 0.242.

**Q.** B2 was tested. Which “median log2 fold change” value did it give?
**A.** The value was -0.0614.

**Q.** With B3 as the binder, how does the “median log2 fold change” value read?
**A.** Its value is 0.244.

**Q.** How did the “median log2 fold change” value turn out when B4 was run?
**A.** Its value is 0.193.

**Q.** With B5 as the binder, how does the “median log2 fold change” value read?
**A.** Its value is 0.235.

**Q.** B6 was tested. Which “median log2 fold change” value did it give?
**A.** Its value is 0.176.

**Q.** For B7, which “median log2 fold change” value is on record?
**A.** The value was 0.225.

**Q.** Which “median log2 fold change” value does the source give for B8 here?
**A.** The value was 0.197.

**Q.** Which “median log2 fold change” value does the source give for B9 here?
**A.** Its value is 0.262.

**Q.** Which “median log2 fold change” value does the source give for B10 here?
**A.** Its value is -0.298.

**Q.** B11 was tested. Which “median log2 fold change” value did it give?
**A.** Its value is 0.0899.

**Q.** B12 was tested. Which “median log2 fold change” value did it give?
**A.** Its value is 0.157.

**Q.** How did the “median log2 fold change” value turn out when B13 was run?
**A.** Its value is 0.294.

**Q.** With B14 as the binder, how does the “median log2 fold change” value read?
**A.** The value was 0.209.

**Q.** How did the “median log2 fold change” value turn out when B15 was run?
**A.** The value was 0.0687.

**Q.** B16 was tested. Which “median log2 fold change” value did it give?
**A.** The value was -0.00205.

**Q.** B17 was tested. Which “median log2 fold change” value did it give?
**A.** The value was -0.0461.

**Q.** How did the “median log2 fold change” value turn out when B18 was run?
**A.** The value was 0.183.

**Q.** With B19 as the binder, how does the “median log2 fold change” value read?
**A.** The value was 0.0751.

**Q.** B20 was tested. Which “median log2 fold change” value did it give?
**A.** Its value is -0.164.

**Q.** B21 was tested. Which “median log2 fold change” value did it give?
**A.** The value was 0.284.

**Q.** Which “median log2 fold change” value does the source give for B22 here?
**A.** The value was -0.581.

**Q.** How did the “median log2 fold change” value turn out when B23 was run?
**A.** Its value is -0.0646.

**Q.** For B24, which “median log2 fold change” value is on record?
**A.** The value was -0.0848.

**Q.** With B25 as the binder, how does the “median log2 fold change” value read?
**A.** The value was 0.16.

**Q.** For B26, which “median log2 fold change” value is on record?
**A.** Its value is 0.254.

**Q.** B27 was tested. Which “median log2 fold change” value did it give?
**A.** Its value is -0.86.

**Q.** With B28 as the binder, how does the “median log2 fold change” value read?
**A.** The value was 0.154.

**Q.** For B29, which “median log2 fold change” value is on record?
**A.** Its value is -0.285.
